Screen size: about 310,000 compounds; about 14,000 (4.5%) showed an effect of 50% or more. The effect is printed as a negative number. The list shows a part of the results.

The text below walks through data of paper PMC4336329 (PLoS ONE, 2015).
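Further: peak tail current of the secondary pulse compared with the same well before compound.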

Chain of human ether-à-go-go-related gene (hERG) potassium channel (Q12809 whole entry, looked up): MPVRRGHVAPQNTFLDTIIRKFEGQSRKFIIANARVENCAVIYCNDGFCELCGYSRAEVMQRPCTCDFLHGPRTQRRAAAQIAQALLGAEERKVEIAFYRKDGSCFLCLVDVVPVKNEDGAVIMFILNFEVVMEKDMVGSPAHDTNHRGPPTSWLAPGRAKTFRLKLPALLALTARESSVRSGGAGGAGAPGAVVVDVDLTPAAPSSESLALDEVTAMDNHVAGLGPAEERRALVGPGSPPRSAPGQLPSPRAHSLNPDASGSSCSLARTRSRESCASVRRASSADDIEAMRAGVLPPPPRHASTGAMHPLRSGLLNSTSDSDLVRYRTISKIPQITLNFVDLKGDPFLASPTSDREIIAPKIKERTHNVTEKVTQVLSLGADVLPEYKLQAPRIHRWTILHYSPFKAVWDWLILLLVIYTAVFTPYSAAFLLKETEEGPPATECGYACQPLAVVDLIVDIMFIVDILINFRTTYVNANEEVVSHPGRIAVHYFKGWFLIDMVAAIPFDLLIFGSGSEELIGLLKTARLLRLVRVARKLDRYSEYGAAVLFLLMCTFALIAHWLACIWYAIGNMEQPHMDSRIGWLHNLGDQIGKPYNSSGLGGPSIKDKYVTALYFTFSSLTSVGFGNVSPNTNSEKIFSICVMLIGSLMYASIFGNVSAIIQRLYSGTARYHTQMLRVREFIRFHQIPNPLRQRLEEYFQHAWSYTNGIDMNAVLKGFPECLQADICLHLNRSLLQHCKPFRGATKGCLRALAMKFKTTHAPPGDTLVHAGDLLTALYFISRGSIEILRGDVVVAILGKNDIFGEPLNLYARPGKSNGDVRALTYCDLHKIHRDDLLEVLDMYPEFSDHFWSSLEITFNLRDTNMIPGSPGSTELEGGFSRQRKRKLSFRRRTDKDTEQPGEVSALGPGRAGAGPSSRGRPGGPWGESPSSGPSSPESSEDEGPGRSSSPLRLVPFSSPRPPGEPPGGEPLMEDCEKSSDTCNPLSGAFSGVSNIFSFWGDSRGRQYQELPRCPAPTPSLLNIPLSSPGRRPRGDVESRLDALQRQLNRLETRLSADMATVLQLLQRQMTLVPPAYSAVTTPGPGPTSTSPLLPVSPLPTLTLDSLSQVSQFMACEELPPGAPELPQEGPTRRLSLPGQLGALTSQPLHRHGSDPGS

The assay has as its target human ether-à-go-go-related gene (hERG) potassium channel (human, UniProt Q12809). Description: primary screen, population patch clamp on CHO cells stably expressing hERG.
Consider `Cc1ccc(C(=O)C2CCN(CC(=O)Nc3ccc(N(C)C)cc3)CC2)cc1`, for which the “hERG current change (%, negative = inhibition) at 10uM” value is reported as -36.4%.
In the case of `COc1ccc(-c2c[n+]3c4n2CCCCC4=C(c2ccccc2)C3)cc1.[Br-]` it was -75.1%; in that of `CCC1=C(OC(=O)N(CC)CC)N2C(=O)OC(=NCC(=O)OC)[C@]2(C)[C@H]2C1=CC[C@H]1C(=O)NC(=O)[C@H]12`, -15.5%.
In the case of `COC(=O)c1cc(=O)n(C2CC2)c(=NC2CC2)s1` it was -12.2%.
The value for `CC1CCCCN1C(=O)C(Cc1ccccc1)N1C(=O)C2CCCCC2C1=O` (stereo not shown) was 7.93%.
For the compound `Clc1ccc(CSc2cc3c(nn2)-c2ccccc2CC3)cc1Cl`, the “hERG current change (%, negative = inhibition) at 10uM” value is -6.56%.
As for `COc1ccc2nc(NC(=O)[C@@H]3CCCN3C(=O)c3cccs3)sc2c1`, the “hERG current change (%, negative = inhibition) at 10uM” value was -56.4%.
In the case of `C=CCSC1=NC(N)=C(C#N)C2(CCCCC2)C1C(N)=O` (stereo not shown) it was -2.72%; in that of `C=CCN(C/C(=N\O)c1sc(C(=O)OCC)nc1C)c1cccc(Br)c1`, 0.291%; in that of `COc1ccc([N+](=O)[O-])cc1NC(=O)CCN1CCN(c2ccccc2)CC1`, 11.1%.
Regarding `Cc1ccccc1N(C(=O)c1snc(C(N)=O)c1N)C(C(=O)NCC1CCCO1)c1ccc(F)cc1` (stereo not shown), the “hERG current change (%, negative = inhibition) at 10uM” value is given as -7.02%.
In the case of `O=C(Cc1c(F)cccc1Cl)N/N=C/c1cccnc1` it was 6.3%.
The value for `CCc1noc(C)c1C(=O)NNC(=O)c1ccccc1Cl` was 19.2%.
In the case of `CCN1CCN(CC(=O)Nc2nc3ccccc3s2)CC1.O=CO` it was -22.7%; in that of `Cc1ccc(NC(=O)CCn2nc([N+](=O)[O-])cc2C)nc1`, -8.11%; in that of `O=C(c1ccc(CS(=O)c2cccc(Cl)c2)o1)N1CCN(c2ccccn2)CC1` (stereo not shown), -22.1%.
For `CC(=O)Nc1ccc(S(=O)(=O)Nc2ccccc2N2CCOCC2)cc1Cl`, the “hERG current change (%, negative = inhibition) at 10uM” value is given as -1.56%.
In the case of `CN1CCN(S(=O)(=O)c2ccc(NC(=S)NC(=O)c3ccccc3)cc2)CC1` it was -1.38%.
The value for `CC(=O)N1c2ccc(S(=O)(=O)NCCC(=O)Nc3cccc(Cl)c3)cc2CC1C` (stereo not shown) was 3.11%; that for `COCc1nnc(NC(=O)COc2ccc3c(c2)OCO3)s1` was 14.1%; that for `CCOC(=O)c1c(C)n(Cc2ccccc2)c2ccc(OCC(O)CNC(C)(C)C)cc12` (stereo not shown) was -41%.
In the case of `Cn1c(CNc2ccccn2)c(C#N)c2ccccc21` it was -6.94%; in that of `COc1ccc(F)cc1C(=O)C1CCCN(Cc2ccc3c(c2)OCCO3)C1` (stereo not shown), -54.3%.
As for `O=C1C2CCCN2C(c2cccs2)N1c1ccccn1` (stereo not shown), the “hERG current change (%, negative = inhibition) at 10uM” value stood at 2.01%.
For the compound `CC(=O)Nc1ccc(OS(=O)(=O)c2cc(Cl)ccc2C)cc1`, the “hERG current change (%, negative = inhibition) at 10uM” value is on record as -6.02%.
The value for `COc1ccc(CNC(=S)NCc2ccc(OC)cc2)cc1` was 19.1%.
In the case of `O=C(O)CC(NC(=O)C12CC3CC(CC(C3)C1)C2)c1ccc2c(c1)OCO2` (stereo not shown) it was 13.4%.
The value for `CCOc1ccc(OCC)c(NC(=O)C2C3C=CC(O3)C2C(=O)NCc2ccco2)c1` (stereo not shown) was -3.93%; that for `COc1ccc(CNC(=O)c2ccc(Cl)c(NC3=NC4CS(=O)(=O)CC4S3)c2)cc1` (stereo not shown) was 3.02%.
Regarding `CN1CCN(C(=O)C2CCC(=O)N(CCc3cccc(F)c3)C2)CC1` (stereo not shown), the “hERG current change (%, negative = inhibition) at 10uM” value came to 12.3%.
The value for `Cc1ccccc1NC(=O)N(C(C)C)C(C)C` was 1.81%.
In the case of `CC(=O)N1CC(C)Sc2ccc(S(=O)(=O)NCCc3ccc(C)cc3)cc21` (stereo not shown) it was -1.22%; in that of `COc1ccc(C(CNC(=O)c2cccc(NS(=O)(=O)c3ccc(C)c(F)c3)c2)N(C)C)cc1` (stereo not shown), -62.6%.
Consider `CCNC(=S)NCc1ccc(Cl)cc1`, for which the “hERG current change (%, negative = inhibition) at 10uM” value stood at 0.291%.
In the case of `Cc1cc(C)nc(N(C#N)Cc2cccc3ccccc23)n1` it was 3.61%; in that of `CCOC(=O)N1CCC(NC(=O)Cc2cn(C)c3ccccc23)CC1`, 0.471%.
In the case of `COc1ccccc1N1CCN(S(=O)(=O)c2ccc3c(c2)CC(C)N3C(C)=O)CC1` (stereo not shown) it was 9.69%.
The value for `COc1ccc(C(=O)NCCCSc2ccccc2)cc1F` was 8.32%.
Take `COCC(O)CSc1c([N+](=O)[O-])nc(C)n1Cc1ccc(OC)c([N+](=O)[O-])c1` (stereo not shown): the “hERG current change (%, negative = inhibition) at 10uM” value was -2.82%.
As to `COc1ccc(N2CCN(C(=O)/C=C/c3ccco3)CC2)cc1`, the “hERG current change (%, negative = inhibition) at 10uM” value is listed as -34.5%.
The value for `CCOC(=O)N1CCN(S(=O)(=O)c2cc(-c3nn4c(C)nnc4c4ccccc34)ccc2C)CC1` was -29%; that for `CC1CCN(C(=O)c2[nH]cnc2C(=O)N[C@H](C)c2ccccc2)CC1` was 16%; that for `Cc1cc(C)c(S(=O)(=O)Nc2ccccn2)c(C)c1` was 14.9%.
In the case of `CC(C)CNC(=O)COC(=O)CCC(=O)c1ccc(F)cc1` it was 6.45%; in that of `CN1c2ccc([N+](=O)[O-])cc2C(C)(C)C12C=Cc1cc(C(=O)O)ccc1O2` (stereo not shown), 42%.
The value for `NNC(=O)c1ccc(NS(=O)(=O)c2ccc(Br)cc2)cc1` was 10.5%.
For the compound `CCOC(=O)c1ccccc1-n1nnnc1C`, the “hERG current change (%, negative = inhibition) at 10uM” value is 10.4%.
In the case of `COc1ccc(OCC(=O)N2CCOCC2)cc1` it was 4.45%; in that of `Cc1ccc(C(=O)NNC(=O)/C=C\C(=O)O)cc1`, 6.41%.
As to `CCOc1ccc(N(CC(=O)Nc2ccc(OC)cc2)C2=NC3CS(=O)(=O)CC3S2)cc1` (stereo not shown), the “hERG current change (%, negative = inhibition) at 10uM” value was 6.44%.
The value for `O=C(CSc1nc2ccccc2c(=O)n1-c1ccccc1)NCc1ccc2c(c1)OCO2` was 3.23%; that for `CN(C)S(=O)(=O)n1cc(/C=C(\NC(=O)c2ccccc2F)C(=O)NCCCN2CCOCC2)c2ccccc21` was -15.4%; that for `CCOc1ccc(N2C(=O)CSC2=S)cc1` was 24.6%.
The value for `COc1ccc(N(C(=O)c2cccnc2)S(=O)(=O)c2ccc(Cl)cc2)cc1` was -8.98%; that for `CCC(NC(=O)Nc1cc(C)on1)(C(F)(F)F)C(F)(F)F` was 9.14%.
The value for `O=C(Cn1cnc2ccccc2c1=O)N1CCN(Cc2ccc3c(c2)OCO3)CC1` was -14%.
As for `CCOc1ccc(Nc2nc(N)c([N+](=O)[O-])c(NCc3ccccc3)n2)cc1`, the “hERG current change (%, negative = inhibition) at 10uM” value worked out at 16.4%.
On to `O=C(c1ccsc1)N1CCCC(N2CCN(c3cccc(C(F)(F)F)c3)CC2)C1` (stereo not shown), for which the “hERG current change (%, negative = inhibition) at 10uM” value is recorded as -64.2%.
On to `Nn1cnnc1N/N=C/c1ccc(F)cc1`, for which the “hERG current change (%, negative = inhibition) at 10uM” value is recorded as 3.59%.
The value for `O=C1C=C(c2cccs2)C[C@H](c2ccccc2)[C@H]1n1nnc([N+](=O)[O-])n1` was -3.92%; that for `Cc1cccc(S(=O)(=O)Nc2ccc3c(c2)OCCO3)c1` was 12%; that for `Cc1noc(C)c1Cc1c(Cl)cccc1Cl` was 2.95%.
The value for `COCCOC1CCN(C(=O)c2cc(COc3ccc(-n4cncn4)cc3)on2)CC1` was -22.8%; that for `CCC(C)[C@H](NC(=O)NCCCOC(C)C)C(=O)OC` (stereo partly shown) was 14%; that for `CCn1c(COc2ccccc2)nnc1SCC(=O)C(C)(C)C` was -14.2%.
In the case of `CC[C@@H](C)[C@H](CNC)NC[C@@H](Cc1cccc2ccccc12)NCCc1cccc(C(F)(F)F)c1`, the “hERG current change (%, negative = inhibition) at 10uM” value is -24.1%.
In the case of `C#CCOCCOCCOCCNc1nc(N2CCN(C(=O)Cn3cc(CC(C)O)nn3)CC2)nc(N2CCN(C(=O)[C@H](C)n3cc(CCC[NH+]=C(N)N)nn3)CC2)n1.[Cl-]` (stereo partly shown) it was 5.06%.
In the case of `COCCOCCn1c(/C=C/c2ccccc2)nc2ccccc21` it was -11.9%; in that of `CN(C(=O)CSc1nnc(-c2cccnc2)o1)C1CCCCC1`, -6.01%; in that of `CCC(C)Sc1nc2ccccc2c(=O)[nH]1` (stereo not shown), 1.6%.
In the case of `CCCn1nnnc1NCc1c(F)cccc1Cl` it was 12.9%.
For the compound `CC(C)c1ccc(NC(=O)C(c2ccccc2)N(C)C(=O)CCc2c[nH]c3ccccc23)cc1` (stereo not shown), the “hERG current change (%, negative = inhibition) at 10uM” value was determined as 5.79%.
The value for `N#C/C=C(/N)N1CCN(c2ccc(Cl)c(Cl)c2)CC1` was -73.9%; that for `CC(C)C(NC(=O)c1c(F)cccc1F)C(=O)NCc1ccc(S(=O)(=O)N2CCOCC2)cc1` (stereo not shown) was -7.99%; that for `Cn1c(SCC(=O)Nc2nnc(-c3ccccc3)o2)nnc1C1CC1` was 9.79%.
The value for `Cn1c(=O)c(=O)n(C)c2cc(S(=O)(=O)CCC(=O)Nc3c(F)c(F)c(F)c(F)c3F)ccc21` was 13.3%; that for `CCOc1ccc(Br)cc1S(=O)(=O)Nc1ccc(Cl)c(S(=O)(=O)N(CC)c2ccccc2)c1` was 15%.
Consider `COC(=O)C1=C(c2cccc(OCc3ccccc3)c2)C[C@@H]2CC[C@H]1N2C(=O)NCc1ccccc1OC`, for which the “hERG current change (%, negative = inhibition) at 10uM” value is reported as 12.6%.
Take `O=C(CSc1nnc(Cc2ccc(Cl)cc2)o1)Nc1ccccc1`: the “hERG current change (%, negative = inhibition) at 10uM” value is 8.75%.
In the case of `CCN1C(=O)c2ccccc2Sc2ccc(C(=O)N3CCC4(CC3)OCCO4)cc21` it was -3.07%; in that of `Cc1sc(NC(=O)CN2CCCC2)nc1-c1ccc2c(c1)CCN2C(=O)c1cccc(F)c1`, 4.33%; in that of `CC(C)CN(C(=O)CN(C)S(=O)(=O)c1ccc(Cl)cc1)C1CCS(=O)(=O)C1` (stereo not shown), -34.3%.
The value for `Cc1ccc(C(=O)N[C@H](C(=O)Nc2sccc2C(N)=O)C(C)C)cc1` was 5.47%; that for `COc1ccc(CCNC(=O)c2c(-c3ccccc3)noc2C)cc1OC` was 0.45%.
In the case of `COc1ccc(N2CCN(C(=O)CCCn3c(=O)c4cccn4c4cccnc43)CC2)cc1` it was -2.97%.
